From patent publication US20110245334A1, “USE OF RACEMATES OF PINOCEMBRIN IN PREPARING MEDICAMENTS FOR TREATING STROKE” (CSPC Zhonggi Pharmaceutical Technology (Shijiazhuang) Co. …, priority 2008, published 2011)
Read-outs that look alike come from different tables or passages of the source.

Columns and labels:
[1] = tested on: Spontaneously Hypertensive Rats of Stroke Prone (SHRSP); test: Scores of neurological symptoms after stroke onset in SHRSP; assay type: in vivo, rat
Experimental: Scores of neurological symptoms after stroke onset:
After stroke onset, the scores during 14 days were recorded for every animal, and the scores in the treated groups are compared with scores in the control group.

[2] = tested on: Spontaneously Hypertensive Rats of Stroke Prone (SHRSP); test: Hemorheology in SHRSP; assay type: in vivo, rat; settings: for effect on blood hemorheology indexes / blood viscosity: compared with the model group
Experimental: 1) After the last dose, the rats were fasted for 6 hours, and blood samples were collected by blood sampling in eyeground. After decollation, the whole brains of the rats were detached at ice trays for use.
2) Blood of 3 mL was dropped rapidly in a cuvette with 1 mL 0.074% heparin and mixed. The whole blood viscosity, plasma viscosity, red blood cell (RBC) aggregation index and RBC deformation index were determined with a hemorheology detector according to its specifications.
(§1) 2) Hemorheology: including whole blood viscosity, plasma viscosity, RBC aggregation index, RBC deformation index and platelet aggregation ratio.

[3] = tested on: Spontaneously Hypertensive Rats of Stroke Prone (SHRSP); test: Platelet aggregation ratio in SHRSP; assay type: in vivo, rat; settings: for effect on platelet aggregation ratio: compared with the model group
Experimental: 3) Blood of 2 mL was dropped rapidly in a cuvette with 0.2 mL 0.13 mol/L
Sodium citrate) and mixed. The mixture was centrifuged for 10 min at 1000 rpm and platelet aggregation ratio was determined with a platelet aggregation meter according to its specifications.
as §1

[4] = tested on: Spontaneously Hypertensive Rats of Stroke Prone (SHRSP); test: Brain water content in SHRSP; assay type: in vivo, rat; settings: (wet weight−dry weight)/wet weight×100%
Experimental: 6) The whole brain tissues were weighed one by one, dried in a vacuum over at 110±5° C. for 48 hours, and then weighed again.
5) Brain water content: according to the weights of whole brain tissue before and after taken into the vacuum oven, the data were applied to the following formula and calculated:
Brain water content=(wet weight−dry weight)/wet weight×100%

[5] = tested on: Spontaneously Hypertensive Rats of Stroke Prone (SHRSP); settings: for NUMBER OF RATS After experiment: 10 before experiment; for effect on time of stroke onset (prophylaxis): compared with the model group
[6] = tested on: TNF-α, IL-1β, ICAM-1, VCAM-1, iNOS, AQP-4; test: Expression of TNF-α, IL-1β, ICAM-1, VCAM-1, iNOS and AQP-4 in ischemic cerebral tissue (FIG. 2); assay type: in vivo, rat; settings: 24 h after ischemia, 3 mg/kg, 10 mg/kg, 30 mg/kg in early stage of ischemia
Text: B is a statistic chart that quantifies the expression of TNF-α, IL-1β, ICAM-1, VCAM-1, iNOS and AQP-4 with β-actin as internal standard.
With β-actin as internal standard, the expressions of TNF-α, IL-1β, ICAM-1, VCAM-1, iNOS, AQP-4 were quantified, and the inhibition effects of pinocembrin racemate on the above proteins were seen intuitively.

SMILES	RBC aggregation index ([2]; 3 mg/kg)	RBC deformation index ([2]; 3 mg/kg)	plasma specific viscosity ([2]; 3 mg/kg)	whole blood viscosity 5 (l/s) ([2]; 3 mg/kg)	whole blood viscosity 20 (l/s) ([2]; 3 mg/kg)	Change of platelet aggregation ([3]; 3 mg/kg)	Brain water content ([4]; 3 mg/kg)	TIME OF STROKE ONSET ([5]; 3 mg/kg) [days]	NUMBER OF RATS After experiment ([5]; 3 mg/kg)	RBC aggregation index ([2]; 10 mg/kg)	RBC deformation index ([2]; 10 mg/kg)	plasma specific viscosity ([2]; 10 mg/kg)	whole blood viscosity 5 (l/s) ([2]; 10 mg/kg)	whole blood viscosity 20 (l/s) ([2]; 10 mg/kg)	RBC aggregation index ([2]; 30 mg/kg)	RBC deformation index ([2]; 30 mg/kg)	plasma specific viscosity ([2]; 30 mg/kg)	whole blood viscosity 5 (l/s) ([2]; 30 mg/kg)	whole blood viscosity 20 (l/s) ([2]; 30 mg/kg)	Change of platelet aggregation ([3]; 10 mg/kg)	other results
COCCOC(=O)C1=C(C)NC(C)=C(C(=O)OC(C)C)C1c1cccc([N+](=O)[O-])c1 (stereo not shown) [Nimodipine, reference compound]	8.69 ± 1.01	0.213 ± 0.03	1.98 ± 0.29	11.84 ± 2.44	4.64 ± 0.92	20.1 ± 2.8	78.82 ± 0.58	41.6 ± 12.8	10												score of neurological symptoms after stroke onset ([1]; 3 mg/kg, after 6 days): below 2.2
O=C1CC(c2ccccc2)Oc2cc(O)cc(O)c21 (racemic) [Pinocembrin racemate, pinocembrin racemate]	8.84 ± 0.63	0.183 ± 0.028	2.17 ± 0.28	14.81 ± 2.13	4.66 ± 0.34	25.1 ± 3.0	79.51 ± 0.42	40.1 ± 8.7	10	8.36 ± 1.39	0.219 ± 0.031	2.01 ± 0.49	12.01 ± 2.46	4.12 ± 0.57	7.84 ± 0.63	0.222 ± 0.028	1.99 ± 0.28	10.95 ± 1.30	3.89 ± 0.28	23.8 ± 2.9	score of neurological symptoms after stroke onset ([1]; high dose (30 mg/kg/d), within 2-14 days after onset): below 1.6; score of neurological symptoms after stroke onset ([1]; middle dose (10 mg/kg/d), within 2-14 days after onset): < 2.3; effect on blood hemorheology indexes / blood viscosity [2]: decrease blood viscosity in a dose-dependent manner; Change of platelet aggregation ([3]; 30 mg/kg): 22.3 ± 3.5; effect on platelet aggregation ratio [3]: resist platelet aggregation in a dose-dependent manner; Brain water content ([4]; 10 mg/kg): 79.08 ± 0.67; Brain water content ([4]; 30 mg/kg): 78.67 ± 0.60; expression of adhesion molecules ICAM-1 and VCAM-1 in cerebral ischemic tissue [6]: inhibited the expression of TNF-α and IL-1β in some extents; effect on survival ratio after stroke (treatment) [5]: dose-dependently increase survival ratio after stroke; TIME OF STROKE ONSET ([5]; 10 mg/kg): 42.7 ± 7.2 days; NUMBER OF RATS After experiment ([5]; 10 mg/kg): 10; CAUSES OF DEATH: ischemic stroke (number of rats) ([5]; 30 mg/kg): Ischemic stroke: 1; TIME OF STROKE ONSET ([5]; 30 mg/kg): 43.9 ± 6.4 days; NUMBER OF RATS After experiment ([5]; 30 mg/kg): 9; effect on time of stroke onset (prophylaxis) [5]: delay the time of stroke onset in dose-dependent manner
O=C1C[C@H](c2ccccc2)Oc2cc(O)cc(O)c21 [(R)-pinocembrin]	8.50 ± 2.11	0.144 ± 0.405	2.60 ± 0.94	15.20 ± 1.82	5.06 ± 1.45	25.9 ± 1.7	79.55 ± 0.55	37.7 ± 8.4	9	8.25 ± 2.41	0.184 ± 0.100	2.30 ± 0.63	14.39 ± 1.84	4.45 ± 0.71	8.12 ± 0.88	0.219 ± 0.104	2.09 ± 0.51	12.24 ± 3.16	4.28 ± 0.66	25.4 ± 4.3	Change of platelet aggregation ([3]; 30 mg/kg): 23.9 ± 6.1; Brain water content ([4]; 10 mg/kg): 79.54 ± 0.53; Brain water content ([4]; 30 mg/kg): 79.00 ± 0.14; effect on survival ratio after stroke (treatment) [5]: has this activity only when administered by high dose; CAUSES OF DEATH: ischemic stroke (number of rats) ([5]; 3 mg/kg): ischemic stroke: 1; CAUSES OF DEATH: hemorrhagic stroke (number of rats) ([5]; 10 mg/kg): hemorrhagic stroke: 1; CAUSES OF DEATH: ischemic stroke (number of rats) ([5]; 10 mg/kg): ischemic stroke: 2; TIME OF STROKE ONSET ([5]; 10 mg/kg): 39.8 ± 7.8 days; NUMBER OF RATS After experiment ([5]; 10 mg/kg): 7; CAUSES OF DEATH: ischemic stroke (number of rats) ([5]; 30 mg/kg): ischemic stroke: 3; TIME OF STROKE ONSET ([5]; 30 mg/kg): 41.8 ± 6.9 days; NUMBER OF RATS After experiment ([5]; 30 mg/kg): 7
O=C1C[C@@H](c2ccccc2)Oc2cc(O)cc(O)c21 [(S)-pinocembrin, reference compound]	14.45 ± 1.13	0.101 ± 0.030	2.79 ± 0.42	15.39 ± 1.20	5.78 ± 0.06	26.7 ± 1.3	79.95 ± 0.68	34.3 ± 6.9	7	13.07 ± 1.13	0.109 ± 0.082	2.65 ± 0.42	15.13 ± 3.06	5.49 ± 0.43	12.50 ± 2.11	0.120 ± 0.405	2.47 ± 0.15	14.90 ± 3.32	4.96 ± 1.26	26.5 ± 4.1	effect on blood hemorheology indexes / blood viscosity [2]: no activity at all; Change of platelet aggregation ([3]; 30 mg/kg): 25.7 ± 5.4; effect on platelet aggregation ratio [3]: no activity; Brain water content ([4]; 10 mg/kg): 79.75 ± 0.81; Brain water content ([4]; 30 mg/kg): 79.67 ± 0.73; effect on survival ratio after stroke (treatment) [5]: no significant activity; CAUSES OF DEATH: ischemic stroke (number of rats) ([5]; 3 mg/kg): ischemic stroke: 3; CAUSES OF DEATH: hemorrhagic stroke (number of rats) ([5]; 10 mg/kg): hemorrhagic stroke: 2; CAUSES OF DEATH: ischemic stroke (number of rats) ([5]; 10 mg/kg): ischemic stroke: 2; TIME OF STROKE ONSET ([5]; 10 mg/kg): 37.6 ± 7.3 days; NUMBER OF RATS After experiment ([5]; 10 mg/kg): 6; CAUSES OF DEATH: ischemic stroke (number of rats) ([5]; 30 mg/kg): ischemic stroke: 3; TIME OF STROKE ONSET ([5]; 30 mg/kg): 41.5 ± 5.8 days; NUMBER OF RATS After experiment ([5]; 30 mg/kg): 7; effect on time of stroke onset (prophylaxis) [5]: no activity
